Assay results reported in the supplement of paper PMC7826260.
This is one part of the list. Viral Rep nickase domains cut single-stranded DNA in vitro (1 h at 37 °C, 3 µM enzyme); the outer parts of the 90-letter strands are left off. A value is the log2 ratio of uncut reads to the pool without enzyme; more negative means more cut, near 0 not cut, and no call is made. The scaling is to total reads; uncut strands gain when others are lost, and binding without cutting may add a little.

Experiments:
Assay in all cases: uncleaved DNA left, log2 of reads against the no-enzyme library (log2 ratio); higher = less cleavage (more negative = more Rep cleavage of the k-mer); sequences stand for … in CTCGTCCG…ACCGGAGA
[1] = system: T1, Rep nickase domain of Muscovy duck circovirus
T1 sequence (protein, residues 1-111, tag omitted): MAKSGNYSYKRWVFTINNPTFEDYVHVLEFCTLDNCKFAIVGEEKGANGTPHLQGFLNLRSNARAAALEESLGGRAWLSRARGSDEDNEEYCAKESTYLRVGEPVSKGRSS
Experimental: (§1)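 A pool of 90-nt single-stranded DNAs with seven random bases just before the constant AC of the nick site (name = the seven bases) was cut by 3 µM recombinant His6-SUMO-tagged Rep nickase domain (300 nM DNA, 50 mM HEPES pH 8.0, 50 mM NaCl, 1 mM MnCl2, 1 h, 37 °C, three replicates). Uncut DNA was amplified and sequenced.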

[2] = system: T2, Rep nickase domain of banana bunchy top virus
T2 sequence (protein, residues 1-94, tag omitted): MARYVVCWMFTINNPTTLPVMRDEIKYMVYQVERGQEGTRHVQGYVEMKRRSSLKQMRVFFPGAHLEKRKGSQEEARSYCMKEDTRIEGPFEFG
Experimental: as §1

[3] = system: T3, Rep nickase domain of cabbage leaf curl virus
T3 sequence (protein, residues 1-116, tag omitted): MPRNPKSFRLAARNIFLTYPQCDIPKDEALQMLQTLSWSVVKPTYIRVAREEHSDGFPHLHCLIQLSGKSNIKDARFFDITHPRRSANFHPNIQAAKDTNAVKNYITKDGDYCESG
Experimental: as §1

[4] = system: T4, Rep nickase domain of chickpea chlorotic dwarf virus
T4 sequence (protein, residues 1-124, tag omitted): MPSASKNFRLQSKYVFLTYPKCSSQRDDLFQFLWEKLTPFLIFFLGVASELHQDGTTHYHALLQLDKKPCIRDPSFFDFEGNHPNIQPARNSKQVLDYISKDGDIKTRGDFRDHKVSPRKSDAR
Experimental: as §1

[5] = system: T5, Rep nickase domain of faba bean necrotic yellows virus
T5 sequence (protein, residues 1-98, tag omitted): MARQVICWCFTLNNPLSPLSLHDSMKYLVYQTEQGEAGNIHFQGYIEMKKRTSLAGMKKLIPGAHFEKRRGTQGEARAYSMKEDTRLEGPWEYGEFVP
Experimental: as §1

[6] = system: T6, Rep nickase domain of maize striate mosaic virus
T6 sequence (protein, residues 1-117, tag omitted): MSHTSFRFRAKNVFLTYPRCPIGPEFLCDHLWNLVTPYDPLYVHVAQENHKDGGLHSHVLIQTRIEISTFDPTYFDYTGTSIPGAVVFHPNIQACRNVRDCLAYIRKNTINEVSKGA
Experimental: as §1

[7] = system: T7, Rep nickase domain of porcine circovirus 2
T7 sequence (protein, residues 2-116, tag omitted): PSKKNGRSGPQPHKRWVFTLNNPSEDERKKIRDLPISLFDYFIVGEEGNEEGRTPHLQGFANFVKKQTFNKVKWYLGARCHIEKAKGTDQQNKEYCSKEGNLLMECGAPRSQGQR
Experimental: as §1

[8] = system: T8, Rep nickase domain of tomato golden mosaic virus
T8 sequence (protein, residues 1-124, tag omitted): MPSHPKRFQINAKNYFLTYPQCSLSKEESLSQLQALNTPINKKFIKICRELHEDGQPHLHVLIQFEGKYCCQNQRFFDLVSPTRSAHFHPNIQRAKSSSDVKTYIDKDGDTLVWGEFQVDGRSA
Experimental: as §1

[9] = system: T9, Rep nickase domain of tomato yellow leaf curl virus
T9 sequence (protein, residues 1-136, tag omitted): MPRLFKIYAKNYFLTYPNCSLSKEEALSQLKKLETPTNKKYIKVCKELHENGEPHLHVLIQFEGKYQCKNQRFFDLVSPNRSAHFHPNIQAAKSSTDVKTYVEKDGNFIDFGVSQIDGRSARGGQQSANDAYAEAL
Experimental: as §1

[10] = system: T10, Rep nickase domain of wheat dwarf virus
T10 sequence (protein, residues 1-137, tag omitted): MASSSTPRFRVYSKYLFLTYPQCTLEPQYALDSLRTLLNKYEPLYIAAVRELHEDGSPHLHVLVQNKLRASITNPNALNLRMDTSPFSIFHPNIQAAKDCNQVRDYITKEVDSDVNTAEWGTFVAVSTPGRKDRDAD
Experimental: as §1

| Sequence | uncleaved DNA left (log2) [1] | uncleaved DNA left (log2) [2] | uncleaved DNA left (log2) [3] | uncleaved DNA left (log2) [4] | uncleaved DNA left (log2) [5] | uncleaved DNA left (log2) [6] | uncleaved DNA left (log2) [7] | uncleaved DNA left (log2) [8] | uncleaved DNA left (log2) [9] | uncleaved DNA left (log2) [10] |
| --- | --- | --- | --- | --- | --- | --- | --- | --- | --- | --- |
| ATCGGAT | 0.0535 | 0.113 | 0.148 | 1.67 | 0.000302 | 1.94 | 0.231 | 0.107 | -0.103 | 0.0457 |
| TTTACGA | -0.0254 | 0.00756 | 0.155 | -0.312 | 0.0672 | 0.028 | 0.0512 | 0.0203 | 0.00464 | -0.0467 |
| TCTCGGC | 0.123 | 0.022 | 0.215 | 0.194 | 0.00386 | -0.0256 | 0.164 | 0.0332 | 0.043 | 0.0663 |
| CAGTAGT | -2.21 | -3.46 | -0.597 | -1.62 | -3.18 | -0.926 | -4.66 | -0.231 | -0.0813 | -0.152 |
| CCCCTGC | -0.18 | -0.129 | -0.475 | -0.752 | -0.0915 | -1.04 | -0.136 | -0.105 | -0.0634 | -0.101 |
| GAGAGGC | 0.17 | 0.0958 | 0.452 | 0.995 | 0.264 | 0.704 | 0.251 | 0.203 | 0.168 | 0.205 |
| TATTGCC | -0.152 | -0.081 | -0.774 | -0.38 | -0.0745 | -1.07 | -0.0365 | -0.236 | 0.00168 | -0.159 |
| ACTGGAC | -0.0716 | -0.167 | -0.0667 | 0.634 | -0.0829 | 0.71 | -0.0175 | -0.036 | -0.175 | -0.0501 |
| CCCCGAG | -0.00256 | -0.0811 | 0.656 | 1.33 | -0.0911 | 0.352 | 0.0946 | 0.0121 | -0.0449 | -0.0106 |
| ACACTTT | 0.0488 | 0.0397 | -0.469 | -2.76 | -0.0493 | -0.754 | -0.369 | -0.0178 | -0.131 | -0.0681 |
| CTAGCGA | 0.0106 | 0.0437 | -0.766 | -0.459 | -0.00793 | -0.825 | 0.042 | -0.0489 | -0.00793 | -0.129 |
| AAATTCT | -4.38 | -0.453 | -4.68 | -3.85 | -0.0932 | -3.9 | -4.55 | -4.42 | -0.414 | -3.99 |
| TAGACCG | 0.0437 | 0.0773 | -0.521 | -0.471 | 0.0908 | -1.08 | 0.138 | -0.0432 | -0.015 | -0.034 |
| TTAGGAT | -0.00779 | -0.00212 | 0.219 | 1.6 | -0.145 | 1.76 | 0.244 | 0.0826 | -0.104 | -0.056 |
| AGGGTTT | -0.066 | 0.0722 | 0.269 | 0.838 | 0.0364 | 1.48 | 0.0774 | 0.14 | 0.0248 | 0.00699 |
| GTAACAT | 0.056 | 0.111 | 0.52 | 1.46 | 0.00857 | 2.06 | 0.184 | 0.0299 | 0.0986 | 0.168 |

| Sequence | uncleaved DNA left (log2) [1] | uncleaved DNA left (log2) [2] | uncleaved DNA left (log2) [3] | uncleaved DNA left (log2) [4] | uncleaved DNA left (log2) [5] | uncleaved DNA left (log2) [6] | uncleaved DNA left (log2) [7] | uncleaved DNA left (log2) [8] | uncleaved DNA left (log2) [9] | uncleaved DNA left (log2) [10] |
| --- | --- | --- | --- | --- | --- | --- | --- | --- | --- | --- |
| CGACAGG | 0.00106 | 0.219 | 0.0251 | 0.693 | -0.0172 | 1.19 | 0.136 | 0.116 | 0.0108 | 0.127 |
| GCTGTGG | -0.0603 | 0.0401 | -0.198 | -0.114 | -0.0286 | -0.779 | 0.0635 | 0.112 | 0.0419 | -0.056 |
| TGTGGGA | 0.0642 | -0.0523 | 0.331 | 0.507 | 0.0381 | 0.261 | 0.202 | 0.0489 | 0.0332 | 0.0106 |
| CTCAAAG | 0.101 | 0.0517 | -0.829 | -0.449 | 0.0317 | -1.2 | 0.165 | -0.0938 | 0.252 | -0.114 |
| ATACTTT | -0.23 | -0.237 | -0.442 | -2.98 | -0.0528 | -0.786 | -0.773 | -0.166 | -0.153 | -0.184 |
| CCGTGTC | -0.0631 | -0.164 | -0.192 | -0.193 | -0.0202 | -0.622 | -0.223 | -0.139 | -0.136 | -0.243 |
| CACCCCT | -0.21 | -0.195 | -1.36 | -2.93 | -0.0617 | -1.14 | -1.12 | -0.339 | -0.145 | -0.329 |
| TCAAATT | -0.0572 | -0.0763 | -0.446 | -2.69 | -0.0162 | -0.555 | -0.703 | -0.107 | -0.0446 | -0.018 |
| ATCGACT | 0.129 | 0.0855 | 0.0723 | 0.522 | 0.0823 | 1.61 | 0.108 | 0.0673 | -0.025 | 0.0791 |
| GTGGTTA | 0.0535 | 0.0354 | 0.365 | 0.843 | -0.146 | 1.81 | 0.0256 | 0.0539 | -0.0145 | -0.0598 |
| GGCCAAC | -0.0414 | -0.0105 | 0.454 | 1.21 | -0.0402 | 1.73 | 0.139 | 0.0593 | 0.0233 | 0.106 |
| TATAAGG | 0.128 | 0.0689 | 0.466 | 1.32 | 0.0319 | 1.59 | 0.159 | 0.154 | -0.0313 | 0.044 |
| CGGCTCC | -0.0935 | -0.102 | 0.0189 | 0.151 | -0.0941 | 0.712 | -0.102 | -0.124 | -0.0948 | -0.115 |
| CCTAATT | -0.0566 | 0.141 | 0.0128 | -2.56 | 0.0993 | -0.839 | -0.64 | 0.0348 | -0.144 | -0.15 |
| TCGGGCA | 0.124 | 0.0865 | 0.532 | 0.917 | -0.0221 | 1.14 | -0.606 | 0.0349 | -0.0829 | -0.0135 |
